Test results reported in the supplement of paper PMC3334620.
Whole data set: some 33,000 sequences, median “E-score (-0.5 to 0.5)” near -0.041, cut for the highest 2% near 0.37. The list shows a part of the results.

Target: T1, Ecm22 (UniProt Q05958)
T1 sequence: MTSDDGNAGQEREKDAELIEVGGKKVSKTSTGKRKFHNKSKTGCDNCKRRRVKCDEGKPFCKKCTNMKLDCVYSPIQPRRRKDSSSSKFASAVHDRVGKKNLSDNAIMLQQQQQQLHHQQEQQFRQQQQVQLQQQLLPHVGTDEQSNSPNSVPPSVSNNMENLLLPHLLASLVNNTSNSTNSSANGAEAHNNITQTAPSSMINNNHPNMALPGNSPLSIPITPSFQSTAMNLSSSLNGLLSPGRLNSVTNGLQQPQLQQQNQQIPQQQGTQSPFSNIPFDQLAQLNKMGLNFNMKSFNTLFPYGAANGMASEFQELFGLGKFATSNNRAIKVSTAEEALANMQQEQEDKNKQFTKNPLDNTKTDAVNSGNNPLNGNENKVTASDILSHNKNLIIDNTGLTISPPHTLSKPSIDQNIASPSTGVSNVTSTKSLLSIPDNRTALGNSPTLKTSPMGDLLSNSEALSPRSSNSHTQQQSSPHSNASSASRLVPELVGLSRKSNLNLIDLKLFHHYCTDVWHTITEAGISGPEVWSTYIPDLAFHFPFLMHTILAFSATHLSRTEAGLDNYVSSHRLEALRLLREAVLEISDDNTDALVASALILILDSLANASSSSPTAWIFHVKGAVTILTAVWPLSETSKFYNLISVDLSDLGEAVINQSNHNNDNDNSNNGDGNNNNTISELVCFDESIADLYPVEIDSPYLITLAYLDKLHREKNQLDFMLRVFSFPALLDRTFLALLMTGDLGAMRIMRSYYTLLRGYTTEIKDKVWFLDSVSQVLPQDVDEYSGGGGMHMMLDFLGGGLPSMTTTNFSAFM
Assay: PBM E-score (8-mer binding enrichment) (E-score (-0.5 to 0.5)); higher = stronger / more preferred TF binding; most listed sequences are background and not binding sites
Settings: protein concentration: 200 nM; construct: GST-full length
How it was run: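 Masliner-normalised scans of fluorescent anti-GST signal were the basis for scoring. That signal came from GST-tagged yeast transcription factors applied at about 100-200 nM to double-stranded universal all-10-mer Agilent arrays on fresh or once-stripped slides. Each ungapped eight-base word, pooled with its reverse complement, received an E-score from the Universal PBM Analysis Suite.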

Sequence	PBM E-score
CACCCAGC	-0.154
ACTCGAGT	0.12
ACAACGGT	0.0964
ACACGGTA	0.108
TAGCTGCA	-0.146
ATATGGGC	-0.113
AAACGATG	0.439
CCACCGAC	-0.182
AAAGAGAT	-0.0862
TACAGATA	0.0642
AATCCTGC	-0.191
ACGCGCAC	0.0967
GAAGAGCA	-0.289
CCACGCAA	-0.0714
CAAGAGCA	-0.302
ATCCACCA	-0.18
CTTGCTTA	-0.208
ATATGCCA	0.04
AACCCGGT	-0.0666
TACACCGA	0.0435
GAAAAGGC	-0.027
GTGCCTGA	-0.193
AACACATA	0.0837
TCAACAAA	0.0901
CGAAAAAG	0.229

Sequence	PBM E-score
ACGCCCGA	-0.0498
ACTTCCCA	-0.0598
CCTGTAAG	-0.191
GCATCAAC	0.0415
AAAATTTA	0.0902
GTGGAAGA	-0.134
CGACCGGA	0.235
ACCGGCGG	-0.0922
CCTTTAAG	-0.259
TATTGAGA	0.0234
ACAGAGAA	-0.114
CGGCCGAC	0.0395
CTAGGTGC	-0.0893
GTAAGTCA	0.189
ACTGGCGG	-0.0132
ACCGAGTG	0.159
TACATCCA	0.0211
CGCGGTAC	0.319
TCATAAGA	0.0597
CCTGGGCC	-0.232
AGGCTGCG	-0.132
TAATTTCA	0.127
CCAGTAAA	-0.0419
TCATCCCA	-0.00546
AGTATTCA	-0.0316

Sequence	PBM E-score
GACTCTAA	-0.21
CCGGATAG	0.0828
ACCAAAAG	-0.178
GGGGCATA	-0.152
AATGCAGC	-0.147
GTAGGCAC	-0.144
CTACACAG	-0.186
CAAGTCGG	0.0293
ACTTTCGG	-0.184
AACGATTC	0.377
AATTTGGA	-0.116
ACCCTTCG	0.126
ACTTCAAA	-0.0226
CAAAGTAA	0.0174
ACCAATGC	0.0524
CCATCCGG	-0.161
CCGGAAAA	0.147
AGAATTGG	-0.0535
CGATATAA	0.138
GCAGTCAC	-0.0863
ACCACCTG	-0.0881
GTGACTCA	-0.0904
ACGCGCAA	0.172
CAAACCGC	-0.181
ACAGATTG	-0.157

Sequence	PBM E-score
GATAAAGA	-0.019
AATTGTTG	-0.172
CACTCATA	0.104
CGATGCCA	0.0118
AAGGGCTC	-0.16
AAAGAAGG	-0.146
AGCATTTG	-0.206
ATAATGTC	0.0705
AGTACAGG	-0.0421
GCGAAAGC	0.0552
CGGCTGGC	0.0664
CCGTAACA	0.2
ATGCACAT	0.0594
ACTTCCAA	-0.156
ACACGACG	0.251
ATTTGTCA	0.147
ATGTAAGA	0.0701
AACTATGT	-0.209
ACTAGAAT	0.0764
AATCAAGT	-0.084
ACCAGGGA	-0.174
CCGGGGAG	-0.164
CGTACGAA	0.448
ATCCCCTC	-0.0572
AACTGCCT	-0.0616

Sequence	PBM E-score
CTTGTTAA	-0.171
AAACTGTC	-0.0481
CGGGGTGC	-0.0331
CCTGCTTA	0.0143
GAAGAAGA	-0.0416
CTGCTGTA	0.132
GAGATGTA	0.0854
AAACTGCT	-0.182
AAGCTCCG	-0.12
AGCGAAGA	0.183
TCGTCAAA	0.216
CCCGTTAC	0.139
AAACACAG	-0.119
CTACGGTA	0.0823
ACGAACTA	0.326
CTCTTCAA	-0.151
GATTTTCC	-0.148
AAACTGAC	0.00573
GTACTGTA	0.196
ATGGCGAC	-0.165
TCGGTCCA	0.219
ACTAATAG	-0.106
CCGCATTA	0.12
ATACCCTC	0.032
CTTTGTGC	-0.0392

Sequence	PBM E-score
TCCACTCA	-0.126
AGTTATGA	-0.112
ATCGAGTA	0.0689
GTTGAGGA	0.0743
GTGTGCGA	0.161
CGGTCGAC	0.1
AAAATAAA	0.0716
ATTCAAAA	-0.0309
CGGTTGTA	-0.00021
TGATGCCA	0.00385
CGGCGAAC	0.0771
AGAGTGAT	-0.0259
CTTTAACA	-0.151
GTTAATTA	0.216
CTACTTTC	-0.0465
ATGTTCTC	0.00702
ATGTCAGC	-0.00063
ACGGTTCT	0.0479
AGCCGGGA	-0.105
AACGGACG	0.211
CGCGGCGA	0.017
TCTGAACA	0.0272
CCAATAGG	-0.157
ATGGTCTA	-0.229
CTATTAGA	-0.0902

Sequence	PBM E-score
GAAACGTC	-0.0173
ACTAGTCA	-0.197
CTCGCATA	0.376
AAGGGTTG	0.0554
AAATATCA	0.0345
AAGTTACC	0.0251
CTACGAAC	0.369
CCGGCCCA	-0.257
CCCGATAC	0.16
GTGCCAAA	-0.0616
ATACAGAT	-0.0539
AGCGCCCG	0.0524
ACACCGTC	0.0816
CTTGGGAA	-0.0525
CACGGCCC	-0.156
CTAGTAGA	-0.00792
AATAGAAC	-0.0269
CCGCGCCA	-0.3
CAGTTGAC	-0.0743
GCGTTGAA	0.218
ATTTTCGA	-0.0346
GATGTCCC	0.0176
